Assay results reported in US20220331414A1, “LIPID COMPOUNDS AND LIPID NANOPARTICLE COMPOSITIONS” (Suzhou Abogen Biosciences Co., Ltd., priority 2020, published 2022).
The name of at least one read-out is uncertain. Some compounds share one wording; it may come from a single statement.

Tested on: human erythropoietin (hEPO) mRNA
Assay: Animal study: hEPO mRNA LNP expression in mice relative to MC3
Format: in vivo
Conditions: 0.5 mg/kg tail vein injection, female ICR mice, serum hEPO (e.g., 6 hours)

CCCCCCCCCOC(=O)CCCCCOP(=O)(NCCCCN(C)C)OCCCCCC(=O)OCCCCCCCCC [Compound 2]
Expression over MC3: D (<0.1)

CCCCCCCCCOC(=O)CCCCCOP(=O)(NCCN(C)C)OCCCCCC(=O)OCCCCCCCCC [Compound 5]
Expression over MC3: D (<0.1)

CCCCCCCCCOC(=O)CCCCCOP(=O)(NCCCN(C)C)OCCCCCC(=O)OCCCCCCCCC [Compound 6]
Expression over MC3: D (<0.1)

CCCCCCCCC(CCCCCC)COP(=O)(NCCCN(C)C)OCC(CCCCCC)CCCCCCCC (stereo not shown) [Compound 7]
Expression over MC3: D (<0.1)

CCCCCCCCCOP(=O)(OCCCCCCCCC)OCCCN(C)C [Compound 8]
Expression over MC3: D (<0.1)

CCCCCCCCCCCCCOP(=O)(NCCCN(C)C)OCCCCCCCCCCCCC [Compound 10]
Expression over MC3: D (<0.1)

CCCCCCCCCCCCCCOP(=O)(NCCCN(C)C)OCCCCCCCCCCCCCC [Compound 11]
Expression over MC3: D (<0.1)

CCCCCCCCCCCCCOP(=O)(NCCCN1CCCC1)OCCCCCCCCCCCCC [Compound 12]
Expression over MC3: D (<0.1)

CCCCCCCCCCCCCOP(=O)(NCCN1CCCCC1)OCCCCCCCCCCCCC [Compound 13]
Expression over MC3: D (<0.1)

CCCCCCCCC(CCCCCC)COP(=O)(NCCN(CCO)CCCC)OCC(CCCCCC)CCCCCCCC (stereo not shown) [Compound 14]
Expression over MC3 (0.5 mg/kg): C (≥0.1 and <1)

CCCCCCCCCCCCCOP(=O)(NCCN1CCOCC1)OCCCCCCCCCCCCC [Compound 15]
Expression over MC3: D (<0.1)

CCCCCCCCCCCCCOP(=O)(NC1CCN(C2CCOCC2)CC1)OCCCCCCCCCCCCC [Compound 16]
Expression over MC3: D (<0.1)

CCCCCCCCCCCCCOP(=O)(NCCN1CCN(C(C)=O)CC1)OCCCCCCCCCCCCC [Compound 17]
Expression over MC3: D (<0.1)

CCCCCCCCC(CCCCCC)COP(=O)(NCCCCN(C)C)OCC(CCCCCC)CCCCCCCC (stereo not shown) [Compound 22]
Expression over MC3: D (<0.1)

CCCCCCCCC(CCCCCC)COP(=O)(NCCCN1CCC1)OCC(CCCCCC)CCCCCCCC (stereo not shown) [Compound 23]
Expression over MC3: D (<0.1)

CCCCCCCCC(CCCCCC)COP(=O)(NCCN1CCCC1)OCC(CCCCCC)CCCCCCCC (stereo not shown) [Compound 24]
Expression over MC3: A (≥2)

CCCCCCCCC(CCCCCC)COP(=O)(NCCCN1CCCC1)OCC(CCCCCC)CCCCCCCC (stereo not shown) [Compound 25]
Expression over MC3: D (<0.1)

CCCCCCCCC(CCCCCC)COP(=O)(NCCN1CCCCC1)OCC(CCCCCC)CCCCCCCC (stereo not shown) [Compound 26]
Expression over MC3: D (<0.1)

CCCCCCCCC(CCCCCC)COP(=O)(NCCCN1CCCCC1)OCC(CCCCCC)CCCCCCCC (stereo not shown) [Compound 27]
Expression over MC3: D (<0.1)

CCCCCCCCC(CCCCCC)COP(=O)(NCCCN1CCCCCC1)OCC(CCCCCC)CCCCCCCC (stereo not shown) [Compound 29]
Expression over MC3: D (<0.1)

CCCCCCCCC(CCCCCC)COP(=O)(NCCCN1CCOCC1)OCC(CCCCCC)CCCCCCCC (stereo not shown) [Compound 31]
Expression over MC3: D (<0.1)

CCCCCCCCCOP(=O)(NCCCN(C)C)OCCCCCCCC(=O)OC(CCCCCCCC)CCCCCCCC (stereo not shown) [Compound 32]
Expression over MC3: D (<0.1)

CCCCCCCCCOP(=O)(NCCN1CCCCC1)OCCCCCCCC(=O)OC(CCCCCCCC)CCCCCCCC (stereo not shown) [Compound 33]
Expression over MC3: D (<0.1)

CCCCCCCCCCCCCOP(=O)(NCCN1CCCCC1)OCCCCCCCC(=O)OC(CCCCCCCC)CCCCCCCC (stereo not shown) [Compound 34]
Expression over MC3: D (<0.1)

CCCCCCCCCCCCCOP(=O)(NCCCN1CCCCC1)OCCCCCCCC(=O)OC(CCCCCCCC)CCCCCCCC (stereo not shown) [Compound 35]
Expression over MC3: D (<0.1)

CCCCCCCCC(CCCCCCCC)OC(=O)CCCCCCCOP(=O)(NCCCN(C)C)OCCCCCCCC(=O)OC(CCCCCCCC)CCCCCCCC [Compound 36]
Expression over MC3: D (<0.1)

CCCCCCCCC(CCCCCCCC)OC(=O)CCCCCCCOP(=O)(NCCN(C)C)OCCCCCCCC(=O)OC(CCCCCCCC)CCCCCCCC [Compound 38]
Expression over MC3: D (<0.1)

CCCCCCCCCCCCCOP(=O)(NCCCN(C)C)OCCCCCCCC(=O)OC(CCCCCCCC)CCCCCCCC (stereo not shown) [Compound 39]
Expression over MC3: D (<0.1)

CCCCCCCCCOC(=O)CCCCCCCOP(=O)(NCCCN(C)C)OCCCCCCCC(=O)OC(CCCCCCCC)CCCCCCCC (stereo not shown) [Compound 40]
Expression over MC3: D (<0.1)

CCCCCCCCCCCCCOP(=O)(NCCN1CCC1)OCCCCCCCC(=O)OC(CCCCCCCC)CCCCCCCC (stereo not shown) [Compound 41]
Expression over MC3: D (<0.1)

CCCCCCCCC(CCCCCCCC)OC(=O)CCCCCCCOP(=O)(NCCN(C)C)OCCCCCCC (stereo not shown) [Compound 42]
Expression over MC3: D (<0.1)

CCCCCCCCC(CCCCCCCC)OC(=O)CCCCCCCOP(=O)(NCCCN(C)C)OCCCCCCC (stereo not shown) [Compound 43]
Expression over MC3: D (<0.1)

CCCCCCCCC(CCCCCCCC)OC(=O)CCCCCCCOP(=O)(NCCCCN(C)C)OCCCCCCC (stereo not shown) [Compound 44]
Expression over MC3: D (<0.1)

CCCCCCCCC(CCCCCC)COC(=O)CCCCCOP(=O)(NCCCN(C)C)OCCCCCC(=O)OCC(CCCCCC)CCCCCCCC (stereo not shown) [Compound 45]
Expression over MC3: D (<0.1)

CCCCCCCCC(CCCCCC)COP(=O)(NCCN(C)CCO)OCC(CCCCCC)CCCCCCCC (stereo not shown) [Compound 46]
Expression over MC3: D (<0.1)

CCCCCCCCC(CCCCCC)COP(=O)(NCCN(CCO)C1CCCCC1)OCC(CCCCCC)CCCCCCCC (stereo not shown) [Compound 47]
Expression over MC3: D (<0.1)

CCCCCCCCC(CCCCCC)COP(=O)(NCCN(C(C)C)C(C)C)OCC(CCCCCC)CCCCCCCC (stereo not shown) [Compound 48]
Expression over MC3: C (≥0.1 and <1)

CCCCCCCCC(CCCCCC)COP(=O)(NCCN(CC)CC)OCC(CCCCCC)CCCCCCCC (stereo not shown) [Compound 49]
Expression over MC3: A (≥2)

CCCCCCCCC(CCCCCC)COP(=O)(NCCN(CCC)CCC)OCC(CCCCCC)CCCCCCCC (stereo not shown) [Compound 50]
Expression over MC3: D (<0.1)

CCCCCCCCC(CCCCCC)COP(=O)(NCCN(CCCC)CCCC)OCC(CCCCCC)CCCCCCCC (stereo not shown) [Compound 51]
Expression over MC3: C (≥0.1 and <1)

CCCCCCCCC(CCCCCC)COP(=O)(NCCN(CCC)CCO)OCC(CCCCCC)CCCCCCCC (stereo not shown) [Compound 53]
Expression over MC3: C (≥0.1 and <1)

CCCCCCCCC(CCCCCC)COP(=O)(NCCN(CCO)CCCC)OCC(CCCCCC)CCCCCCCC (stereo not shown) [Compound 54]
Expression over MC3 (0.5 mg/kg): D (<0.1)

CCCCCCCCC(CCCCCC)COP(=O)(NCCN(CCO)CCCCC)OCC(CCCCCC)CCCCCCCC (stereo not shown) [Compound 55]
Expression over MC3: D (<0.1)

CCCCCCCCC(CCCCCC)COP(=O)(NCCN(CCO)CCCCCC)OCC(CCCCCC)CCCCCCCC (stereo not shown) [Compound 56]
Expression over MC3: D (<0.1)

CCCCCCCCC(CCCCCC)COP(=O)(NCCN(CCO)C1CCC1)OCC(CCCCCC)CCCCCCCC (stereo not shown) [Compound 57]
Expression over MC3: D (<0.1)

CCCCCCCCC(CCCCCC)COP(=O)(NCCN(CCO)C1CCCC1)OCC(CCCCCC)CCCCCCCC (stereo not shown) [Compound 58]
Expression over MC3: C (≥0.1 and <1)

CCCCCCCCC(CCCCCC)C(C)OP(=O)(NCCN(CC)CC)OC(C)C(CCCCCC)CCCCCCCC (stereo not shown) [Compound 59]
Expression over MC3: D (<0.1)

CCCCCCCCC(CCCCCC)COP(=O)(NCCN1CCC(F)(F)C1)OCC(CCCCCC)CCCCCCCC (stereo not shown) [Compound 60]
Expression over MC3: D (<0.1)

CCCCCCCCC(CCCCCC)COP(=O)(NCCN1CC2CCCC2C1)OCC(CCCCCC)CCCCCCCC (stereo not shown) [Compound 61]
Expression over MC3: C (≥0.1 and <1)

CCCCCCCCC(CCCCCC)COP(=O)(NCCN1CC2CC2C1)OCC(CCCCCC)CCCCCCCC (stereo not shown) [Compound 62]
Expression over MC3: D (<0.1)

CCCCCCCCC(CCCCCC)COP(=O)(NCCN1CCC(O)C1)OCC(CCCCCC)CCCCCCCC (stereo not shown) [Compound 63]
Expression over MC3: D (<0.1)

CCCCCCC(CCCCCC)COP(=O)(NCCN(CC)CC)OCC(CCCCCC)CCCCCC [Compound 65]
Expression over MC3 (0.5 mg/kg): A (≥2)

CCCCCCCCCCC(CCCCCC)COP(=O)(NCCN(CC)CC)OCC(CCCCCC)CCCCCCCCCC (stereo not shown) [Compound 66]
Expression over MC3: C (≥0.1 and <1)

CCCCCCCCC(CC)COP(=O)(NCCN(CC)CC)OCC(CC)CCCCCCCC (stereo not shown) [Compound 67]
Expression over MC3: D (<0.1)

CCCCCCCCC(C)COP(=O)(NCCN1CCCC1)OCC(C)CCCCCCCC (stereo not shown) [Compound 68]
Expression over MC3: D (<0.1)

CCCCCCCCC(C)COP(=O)(NCCN(CC)CC)OCC(C)CCCCCCCC (stereo not shown) [Compound 69]
Expression over MC3: D (<0.1)

CCCCCCCCC(CCC)COP(=O)(NCCN(CC)CC)OCC(CCC)CCCCCCCC (stereo not shown) [Compound 70]
Expression over MC3: D (<0.1)

CCCCCCCCC(CCC)COP(=O)(NCCN1CCCC1)OCC(CCC)CCCCCCCC (stereo not shown) [Compound 71]
Expression over MC3: D (<0.1)

CCCCCCCCC(CCCCC)COP(=O)(NCCN(CC)CC)OCC(CCCCC)CCCCCCCC (stereo not shown) [Compound 72]
Expression over MC3: B (≥1 and <2)

CCCCCCCCC(CCCC)COP(=O)(NCCN1CCCC1)OCC(CCCC)CCCCCCCC (stereo not shown) [Compound 73]
Expression over MC3: D (<0.1)

CCCCCCCCC(CCCCC)COP(=O)(NCCN1CCCC1)OCC(CCCCC)CCCCCCCC (stereo not shown) [Compound 74]
Expression over MC3: C (≥0.1 and <1)

CCCCCCCCC(CCCC)COP(=O)(NCCN(CC)CC)OCC(CCCC)CCCCCCCC (stereo not shown) [Compound 75]
Expression over MC3: C (≥0.1 and <1)

CCCCCCCCC(CCCCCC)COP(=O)(OCCN1CCCC1)OCC(CCCCCC)CCCCCCCC (stereo not shown) [Compound 76]
Expression over MC3: D (<0.1)

CCCCCCCCC(CCCCCC)COP(=O)(OCCN1CCCCC1)OCC(CCCCCC)CCCCCCCC (stereo not shown) [Compound 77]
Expression over MC3: D (<0.1)

CCCCCCCCCCC(CCCCCCCC)COP(=O)(NCCN(CC)CC)OCC(CCCCCCCC)CCCCCCCCCC (stereo not shown) [Compound 78]
Expression over MC3: D (<0.1)

CCCCCCCCCCC(CCCCCCCC)COP(=O)(NCCN1CCCC1)OCC(CCCCCCCC)CCCCCCCCCC (stereo not shown) [Compound 79]
Expression over MC3: A (≥2)

CCCCCCCCC(CCCCCCCC)COP(=O)(NCCN(CC)CC)OCC(CCCCCCCC)CCCCCCCC [Compound 80]
Expression over MC3: B (≥1 and <2)

CCCCCCCCC(CCCCCCCC)COP(=O)(NCCN1CCCC1)OCC(CCCCCCCC)CCCCCCCC [Compound 81]
Expression over MC3: C (≥0.1 and <1)

CCCCCCC(CCCCCC)COP(=O)(NCCN(CC)CC)OCC(CCCCCC)CCCCCC [Compound 82]
Expression over MC3 (0.5 mg/kg): B (≥1 and <2)

CCCCCCC(CCCCCC)COP(=O)(NCCN1CCCC1)OCC(CCCCCC)CCCCCC [Compound 83]
Expression over MC3: C (≥0.1 and <1)
